Reference: the supplement of paper PMC4604168 (melanoma cell lines)
The other results are listed elsewhere or left out. Repeats are few or missing, and single values can be far off.

What follows are compounds tested on WM1745 (assay: cell count relative to DMSO control; melanoma cells; higher = more viable cells). Details: library dose: standard library concentration; 72 h.
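Further: cells treated in 1,536-well plates, then fixed and DAPI-stained, with nuclei counted from automated high-throughput microscope images.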

Structure (SMILES) | cell count [%]
CN(c1ncccc1CNc1nc(Nc2ccc3c(c2)CC(=O)N3)ncc1C(F)(F)F)S(C)(=O)=O + Cc1ccc(NC(=O)c2cccc(N(C)C)c2)cc1NC(=O)c1ccc(O)cc1 [ZM336372] (first compound 0.4 µM, partner dose 10 µM) | 66.7
C=C(c1ccc(C(=O)O)cc1)c1cc2c(cc1C)C(C)(C)CCC2(C)C [Bexarotene] + Nc1ccn([C@@H]2O[C@H](CO)[C@@H](O)C2(F)F)c(=O)n1 [gemcitabine] (first compound 10 µM, partner dose 0.002 µM) | 50.1
CS(=O)(=O)c1ccc(C(=O)Nc2ccc(Cl)c(-c3ccccn3)c2)c(Cl)c1 [vismodegib] + CS(=O)(=O)CCNCc1ccc(-c2ccc3ncnc(Nc4ccc(OCc5cccc(F)c5)c(Cl)c4)c3c2)o1 [lapatinib] (first compound 5 µM, partner dose 4 µM) | 73
NC1(c2ccc(-c3nc4ccn5c(=O)[nH]nc5c4cc3-c3ccccc3)cc2)CCC1 + Cc1cc(N2CCOCC2)cc2[nH]c(-c3c(NC[C@@H](O)c4cccc(Cl)c4)cc[nH]c3=O)nc12 [BMS536924] (first compound 2 µM, partner dose 1 µM) | 52.9
C=C(c1ccc(C(=O)O)cc1)c1cc2c(cc1C)C(C)(C)CCC2(C)C [Bexarotene] + Nc1ncn([C@H]2C[C@H](O)[C@@H](CO)O2)c(=O)n1 [decitabine] (first compound 10 µM, partner dose 0.5 µM) | 68.7
NC1(c2ccc(-c3nc4ccn5c(=O)[nH]nc5c4cc3-c3ccccc3)cc2)CCC1 + Cn1c(Nc2ccc(C(F)(F)F)cc2)nc2cc(Oc3ccnc(-c4ncc(C(F)(F)F)[nH]4)c3)ccc21 [CHIR265] (first compound 2 µM, partner dose 0.4 µM) | 51.2
CN(c1ncccc1CNc1nc(Nc2ccc3c(c2)CC(=O)N3)ncc1C(F)(F)F)S(C)(=O)=O + C=CCn1c(=O)c2cnc(Nc3ccc(N4CCN(C)CC4)cc3)nc2n1-c1cccc(C(C)(C)O)n1 [MK1775] (first compound 0.4 µM, partner dose 0.1 µM) | 44.1
CCCS(=O)(=O)Nc1ccc(F)c(C(=O)c2c[nH]c3ncc(Cl)cc23)c1F + COc1cc(Nc2ncc(F)c(Nc3ccc4c(n3)NC(=O)C(C)(C)O4)n2)cc(OC)c1OC [Tamatinib] (first compound 0.4 µM, partner dose 2 µM) | 33.5
NC1(c2ccc(-c3nc4ccn5c(=O)[nH]nc5c4cc3-c3ccccc3)cc2)CCC1 + CN(C)S(=O)(=O)c1ccc2c(c1)/C(=C/c1cc3c([nH]1)CCCC3)C(=O)N2 [SU6656] (first compound 2 µM, partner dose 2 µM) | 66.5
CS(=O)(=O)c1ccc(C(=O)Nc2ccc(Cl)c(-c3ccccn3)c2)c(Cl)c1 [vismodegib] + NC(=O)Nc1cc(-c2cccc(F)c2)sc1C(=O)N[C@H]1CCCNC1 [AZD7762] (first compound 5 µM, partner dose 0.1 µM) | 67.4
CCCS(=O)(=O)Nc1ccc(F)c(C(=O)c2c[nH]c3ncc(Cl)cc23)c1F + OCCn1cc(-c2cnc3nnn(Cc4ccc5ncccc5c4)c3n2)cn1 [PF04217903] (first compound 0.4 µM, partner dose 5 µM) | 85.8
CS(=O)(=O)c1ccc(C(=O)Nc2ccc(Cl)c(-c3ccccn3)c2)c(Cl)c1 [vismodegib] + CC(=O)c1c(C)c2cnc(Nc3ccc(N4CCNCC4)cn3)nc2n(C2CCCC2)c1=O [palbociclib] (first compound 5 µM, partner dose 0.2 µM) | 87.7
CN(c1ncccc1CNc1nc(Nc2ccc3c(c2)CC(=O)N3)ncc1C(F)(F)F)S(C)(=O)=O + CS(=O)(=O)CCNCc1ccc(-c2ccc3ncnc(Nc4ccc(OCc5cccc(F)c5)c(Cl)c4)c3c2)o1 [lapatinib] (first compound 0.4 µM, partner dose 4 µM) | 44.2
CN(c1ncccc1CNc1nc(Nc2ccc3c(c2)CC(=O)N3)ncc1C(F)(F)F)S(C)(=O)=O + Cn1c(Nc2ccc(C(F)(F)F)cc2)nc2cc(Oc3ccnc(-c4ncc(C(F)(F)F)[nH]4)c3)ccc21 [CHIR265] (first compound 0.4 µM, partner dose 0.4 µM) | 39.7
